# Measurements taken from PMC12563811.
# No constants are given. Whether binding was seen depends on the method and setting. In cells and extracts the contact can be indirect. Some results given as binding are weak or reduced against the parent protein; the word gives no strength.
# T1: transcobalamin 1 (TCN1), in 293T cells (UniProt P20061)
# T1 sequence: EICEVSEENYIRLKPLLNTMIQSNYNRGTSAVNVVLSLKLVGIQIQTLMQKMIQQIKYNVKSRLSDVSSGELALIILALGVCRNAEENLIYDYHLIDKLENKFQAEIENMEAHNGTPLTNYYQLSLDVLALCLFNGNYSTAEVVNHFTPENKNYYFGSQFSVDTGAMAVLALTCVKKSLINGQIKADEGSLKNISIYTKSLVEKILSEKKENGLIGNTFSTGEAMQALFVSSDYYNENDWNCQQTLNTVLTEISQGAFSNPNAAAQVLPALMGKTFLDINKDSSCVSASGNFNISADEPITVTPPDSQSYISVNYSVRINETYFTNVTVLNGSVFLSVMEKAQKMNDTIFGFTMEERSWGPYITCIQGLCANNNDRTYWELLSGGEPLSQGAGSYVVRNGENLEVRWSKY
# T2: transcobalamin 1 (TCN1), in PANC-1 cells (UniProt P20061)
# T2 sequence: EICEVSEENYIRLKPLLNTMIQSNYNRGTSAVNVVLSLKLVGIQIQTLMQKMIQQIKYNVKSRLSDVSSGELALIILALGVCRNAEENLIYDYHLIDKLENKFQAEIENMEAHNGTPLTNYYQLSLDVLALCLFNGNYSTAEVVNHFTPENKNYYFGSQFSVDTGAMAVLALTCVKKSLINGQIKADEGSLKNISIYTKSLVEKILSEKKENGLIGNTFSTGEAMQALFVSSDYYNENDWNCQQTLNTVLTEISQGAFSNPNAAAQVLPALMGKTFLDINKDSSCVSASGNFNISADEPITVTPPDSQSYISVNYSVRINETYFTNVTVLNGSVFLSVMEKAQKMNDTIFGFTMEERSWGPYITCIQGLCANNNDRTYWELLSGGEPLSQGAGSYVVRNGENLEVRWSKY
# T3: signal transducer and activator of transcription 4 (STAT4), in 293T cells (UniProt Q14765)
# T3 sequence: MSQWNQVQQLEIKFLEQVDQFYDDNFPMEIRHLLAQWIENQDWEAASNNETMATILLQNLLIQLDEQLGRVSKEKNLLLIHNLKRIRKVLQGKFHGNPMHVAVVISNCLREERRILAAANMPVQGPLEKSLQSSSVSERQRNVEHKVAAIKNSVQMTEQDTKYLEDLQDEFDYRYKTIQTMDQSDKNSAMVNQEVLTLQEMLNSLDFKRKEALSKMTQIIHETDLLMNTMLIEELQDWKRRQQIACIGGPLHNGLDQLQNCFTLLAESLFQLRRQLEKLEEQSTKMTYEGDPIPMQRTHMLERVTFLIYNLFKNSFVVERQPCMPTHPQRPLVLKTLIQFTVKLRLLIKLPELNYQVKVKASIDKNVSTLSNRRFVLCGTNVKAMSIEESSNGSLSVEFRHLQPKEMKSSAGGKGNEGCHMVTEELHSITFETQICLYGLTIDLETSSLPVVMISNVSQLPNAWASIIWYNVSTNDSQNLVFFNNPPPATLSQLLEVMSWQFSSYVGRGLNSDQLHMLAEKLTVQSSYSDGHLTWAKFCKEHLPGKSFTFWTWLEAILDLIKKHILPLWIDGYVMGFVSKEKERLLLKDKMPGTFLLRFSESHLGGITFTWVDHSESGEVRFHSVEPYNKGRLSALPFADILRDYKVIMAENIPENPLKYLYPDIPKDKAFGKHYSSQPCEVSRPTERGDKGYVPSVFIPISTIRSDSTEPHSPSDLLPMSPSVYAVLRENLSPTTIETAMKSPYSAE
# T4: signal transducer and activator of transcription 4 (STAT4), in PANC-1 cells (UniProt Q14765)
# T4 sequence: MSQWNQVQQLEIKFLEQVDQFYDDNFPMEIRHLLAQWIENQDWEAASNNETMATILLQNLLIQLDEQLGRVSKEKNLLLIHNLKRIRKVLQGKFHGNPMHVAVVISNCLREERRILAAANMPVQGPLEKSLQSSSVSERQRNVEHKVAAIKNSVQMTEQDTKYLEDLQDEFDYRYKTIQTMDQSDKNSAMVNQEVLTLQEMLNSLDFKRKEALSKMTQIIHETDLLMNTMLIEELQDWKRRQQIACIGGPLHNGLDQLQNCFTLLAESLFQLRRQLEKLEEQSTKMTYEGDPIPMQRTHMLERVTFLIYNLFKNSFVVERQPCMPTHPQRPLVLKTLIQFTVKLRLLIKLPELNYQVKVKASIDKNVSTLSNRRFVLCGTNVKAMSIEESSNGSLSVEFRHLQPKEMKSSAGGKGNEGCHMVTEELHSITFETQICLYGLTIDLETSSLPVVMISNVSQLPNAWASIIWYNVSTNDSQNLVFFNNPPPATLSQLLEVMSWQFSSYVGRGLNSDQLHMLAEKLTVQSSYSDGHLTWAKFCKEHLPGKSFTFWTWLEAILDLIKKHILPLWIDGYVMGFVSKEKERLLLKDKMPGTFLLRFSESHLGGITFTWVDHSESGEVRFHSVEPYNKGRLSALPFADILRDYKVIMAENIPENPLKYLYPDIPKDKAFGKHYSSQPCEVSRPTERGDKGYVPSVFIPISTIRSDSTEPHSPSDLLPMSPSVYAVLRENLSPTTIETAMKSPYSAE
# T5: signal transducer and activator of transcription 4 (STAT4), in the co-IP with the TCN1 truncation mutants (UniProt Q14765)
# T5 sequence: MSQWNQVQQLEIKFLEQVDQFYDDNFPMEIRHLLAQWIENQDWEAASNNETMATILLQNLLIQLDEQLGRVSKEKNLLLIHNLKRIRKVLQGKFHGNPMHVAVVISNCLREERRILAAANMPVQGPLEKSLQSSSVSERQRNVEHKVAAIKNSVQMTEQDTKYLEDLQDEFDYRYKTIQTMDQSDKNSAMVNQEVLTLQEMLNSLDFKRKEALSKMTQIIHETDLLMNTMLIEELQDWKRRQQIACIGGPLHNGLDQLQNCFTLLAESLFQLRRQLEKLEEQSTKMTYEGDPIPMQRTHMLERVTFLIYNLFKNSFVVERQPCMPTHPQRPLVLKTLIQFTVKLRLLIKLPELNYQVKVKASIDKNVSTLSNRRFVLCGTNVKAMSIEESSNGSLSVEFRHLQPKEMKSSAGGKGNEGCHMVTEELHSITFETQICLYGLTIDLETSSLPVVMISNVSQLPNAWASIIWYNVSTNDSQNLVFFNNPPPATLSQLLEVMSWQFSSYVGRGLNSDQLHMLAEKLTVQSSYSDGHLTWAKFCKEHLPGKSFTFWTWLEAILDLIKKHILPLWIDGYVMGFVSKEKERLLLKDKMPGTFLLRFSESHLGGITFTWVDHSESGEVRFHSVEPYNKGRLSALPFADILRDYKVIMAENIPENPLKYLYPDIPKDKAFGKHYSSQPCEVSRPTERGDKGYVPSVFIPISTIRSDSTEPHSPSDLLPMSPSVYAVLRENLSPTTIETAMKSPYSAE
# Tests used:
# [1] = molecular target: T1, transcobalamin 1 (TCN1), in 293T cells; test: co-IP; in 293T cells; TCN1 pulldown and reciprocal STAT4 pulldown, Western blot
# [2] = molecular target: T2, transcobalamin 1 (TCN1), in PANC-1 cells; test: co-IP; in PANC-1 cells; both directions, Western blot
# [3] = molecular target: T3, signal transducer and activator of transcription 4 (STAT4), in 293T cells; test: co-IP; in 293T cells; TCN1 pulldown and reciprocal STAT4 pulldown, Western blot
# [4] = molecular target: T4, signal transducer and activator of transcription 4 (STAT4), in PANC-1 cells; test: co-IP; in PANC-1 cells; both directions, Western blot
# [5] = molecular target: T5, signal transducer and activator of transcription 4 (STAT4), in the co-IP with the TCN1 truncation mutants; test: co-IP; three TCN1 truncation mutants with STAT4, Western blot; cell line and bait not stated
binder,measurement,setting,value
"signal transducer and activator of transcription 4 (STAT4), in 293T cells (protein, UniProt Q14765 1-748) MSQWNQVQQLEIKFLEQVDQFYDDNFPMEIRHLLAQWIENQDWEAASNNETMATILLQNLLIQLDEQLGRVSKEKNLLLIHNLKRIRKVLQGKFHGNPMHVAVVISNCLREERRILAAANMPVQGPLEKSLQSSSVSERQRNVEHKVAAIKNSVQMTEQDTKYLEDLQDEFDYRYKTIQTMDQSDKNSAMVNQEVLTLQEMLNSLDFKRKEALSKMTQIIHETDLLMNTMLIEELQDWKRRQQIACIGGPLHNGLDQLQNCFTLLAESLFQLRRQLEKLEEQSTKMTYEGDPIPMQRTHMLERVTFLIYNLFKNSFVVERQPCMPTHPQRPLVLKTLIQFTVKLRLLIKLPELNYQVKVKASIDKNVSTLSNRRFVLCGTNVKAMSIEESSNGSLSVEFRHLQPKEMKSSAGGKGNEGCHMVTEELHSITFETQICLYGLTIDLETSSLPVVMISNVSQLPNAWASIIWYNVSTNDSQNLVFFNNPPPATLSQLLEVMSWQFSSYVGRGLNSDQLHMLAEKLTVQSSYSDGHLTWAKFCKEHLPGKSFTFWTWLEAILDLIKKHILPLWIDGYVMGFVSKEKERLLLKDKMPGTFLLRFSESHLGGITFTWVDHSESGEVRFHSVEPYNKGRLSALPFADILRDYKVIMAENIPENPLKYLYPDIPKDKAFGKHYSSQPCEVSRPTERGDKGYVPSVFIPISTIRSDSTEPHSPSDLLPMSPSVYAVLRENLSPTTIETAMKSPYSAE",binding,[1],binds
"signal transducer and activator of transcription 4 (STAT4), in PANC-1 cells (protein, UniProt Q14765 1-748) MSQWNQVQQLEIKFLEQVDQFYDDNFPMEIRHLLAQWIENQDWEAASNNETMATILLQNLLIQLDEQLGRVSKEKNLLLIHNLKRIRKVLQGKFHGNPMHVAVVISNCLREERRILAAANMPVQGPLEKSLQSSSVSERQRNVEHKVAAIKNSVQMTEQDTKYLEDLQDEFDYRYKTIQTMDQSDKNSAMVNQEVLTLQEMLNSLDFKRKEALSKMTQIIHETDLLMNTMLIEELQDWKRRQQIACIGGPLHNGLDQLQNCFTLLAESLFQLRRQLEKLEEQSTKMTYEGDPIPMQRTHMLERVTFLIYNLFKNSFVVERQPCMPTHPQRPLVLKTLIQFTVKLRLLIKLPELNYQVKVKASIDKNVSTLSNRRFVLCGTNVKAMSIEESSNGSLSVEFRHLQPKEMKSSAGGKGNEGCHMVTEELHSITFETQICLYGLTIDLETSSLPVVMISNVSQLPNAWASIIWYNVSTNDSQNLVFFNNPPPATLSQLLEVMSWQFSSYVGRGLNSDQLHMLAEKLTVQSSYSDGHLTWAKFCKEHLPGKSFTFWTWLEAILDLIKKHILPLWIDGYVMGFVSKEKERLLLKDKMPGTFLLRFSESHLGGITFTWVDHSESGEVRFHSVEPYNKGRLSALPFADILRDYKVIMAENIPENPLKYLYPDIPKDKAFGKHYSSQPCEVSRPTERGDKGYVPSVFIPISTIRSDSTEPHSPSDLLPMSPSVYAVLRENLSPTTIETAMKSPYSAE",binding,[2],binds
"transcobalamin 1 (TCN1), in 293T cells (protein, UniProt P20061 24-433) EICEVSEENYIRLKPLLNTMIQSNYNRGTSAVNVVLSLKLVGIQIQTLMQKMIQQIKYNVKSRLSDVSSGELALIILALGVCRNAEENLIYDYHLIDKLENKFQAEIENMEAHNGTPLTNYYQLSLDVLALCLFNGNYSTAEVVNHFTPENKNYYFGSQFSVDTGAMAVLALTCVKKSLINGQIKADEGSLKNISIYTKSLVEKILSEKKENGLIGNTFSTGEAMQALFVSSDYYNENDWNCQQTLNTVLTEISQGAFSNPNAAAQVLPALMGKTFLDINKDSSCVSASGNFNISADEPITVTPPDSQSYISVNYSVRINETYFTNVTVLNGSVFLSVMEKAQKMNDTIFGFTMEERSWGPYITCIQGLCANNNDRTYWELLSGGEPLSQGAGSYVVRNGENLEVRWSKY",binding,[3],binds
"transcobalamin 1 (TCN1), in PANC-1 cells (protein, UniProt P20061 24-433) EICEVSEENYIRLKPLLNTMIQSNYNRGTSAVNVVLSLKLVGIQIQTLMQKMIQQIKYNVKSRLSDVSSGELALIILALGVCRNAEENLIYDYHLIDKLENKFQAEIENMEAHNGTPLTNYYQLSLDVLALCLFNGNYSTAEVVNHFTPENKNYYFGSQFSVDTGAMAVLALTCVKKSLINGQIKADEGSLKNISIYTKSLVEKILSEKKENGLIGNTFSTGEAMQALFVSSDYYNENDWNCQQTLNTVLTEISQGAFSNPNAAAQVLPALMGKTFLDINKDSSCVSASGNFNISADEPITVTPPDSQSYISVNYSVRINETYFTNVTVLNGSVFLSVMEKAQKMNDTIFGFTMEERSWGPYITCIQGLCANNNDRTYWELLSGGEPLSQGAGSYVVRNGENLEVRWSKY",binding,[4],binds
"TCN1 truncation mutant: deletion of the N-terminal α-domain (24–310 aa) (domain or fragment, UniProt P20061) ASGNFNISADEPITVTPPDSQSYISVNYSVRINETYFTNVTVLNGSVFLSVMEKAQKMNDTIFGFTMEERSWGPYITCIQGLCANNNDRTYWELLSGGEPLSQGAGSYVVRNGENLEVRWSKY",binding,[5],binds
"TCN1 truncation mutant: deletion of the flexible linker region (311–332 aa) (domain or fragment, UniProt P20061) EICEVSEENYIRLKPLLNTMIQSNYNRGTSAVNVVLSLKLVGIQIQTLMQKMIQQIKYNVKSRLSDVSSGELALIILALGVCRNAEENLIYDYHLIDKLENKFQAEIENMEAHNGTPLTNYYQLSLDVLALCLFNGNYSTAEVVNHFTPENKNYYFGSQFSVDTGAMAVLALTCVKKSLINGQIKADEGSLKNISIYTKSLVEKILSEKKENGLIGNTFSTGEAMQALFVSSDYYNENDWNCQQTLNTVLTEISQGAFSNPNAAAQVLPALMGKTFLDINKDSSCVSYISVNYSVRINETYFTNVTVLNGSVFLSVMEKAQKMNDTIFGFTMEERSWGPYITCIQGLCANNNDRTYWELLSGGEPLSQGAGSYVVRNGENLEVRWSKY",binding,[5],binds
"TCN1 truncation mutant: deletion of the C-terminal β-domain (333–433 aa) (domain or fragment, UniProt P20061 24-332) EICEVSEENYIRLKPLLNTMIQSNYNRGTSAVNVVLSLKLVGIQIQTLMQKMIQQIKYNVKSRLSDVSSGELALIILALGVCRNAEENLIYDYHLIDKLENKFQAEIENMEAHNGTPLTNYYQLSLDVLALCLFNGNYSTAEVVNHFTPENKNYYFGSQFSVDTGAMAVLALTCVKKSLINGQIKADEGSLKNISIYTKSLVEKILSEKKENGLIGNTFSTGEAMQALFVSSDYYNENDWNCQQTLNTVLTEISQGAFSNPNAAAQVLPALMGKTFLDINKDSSCVSASGNFNISADEPITVTPPDSQS",binding,[5],no binding
